In all, about 33,000 sequences were measured (“E-score (-0.5 to 0.5)”: median about -0.013, highest 2% from about 0.3 on). The list shows a part of the results.

The target of the assay is T1, Msn1 (UniProt P22148).
T1 sequence: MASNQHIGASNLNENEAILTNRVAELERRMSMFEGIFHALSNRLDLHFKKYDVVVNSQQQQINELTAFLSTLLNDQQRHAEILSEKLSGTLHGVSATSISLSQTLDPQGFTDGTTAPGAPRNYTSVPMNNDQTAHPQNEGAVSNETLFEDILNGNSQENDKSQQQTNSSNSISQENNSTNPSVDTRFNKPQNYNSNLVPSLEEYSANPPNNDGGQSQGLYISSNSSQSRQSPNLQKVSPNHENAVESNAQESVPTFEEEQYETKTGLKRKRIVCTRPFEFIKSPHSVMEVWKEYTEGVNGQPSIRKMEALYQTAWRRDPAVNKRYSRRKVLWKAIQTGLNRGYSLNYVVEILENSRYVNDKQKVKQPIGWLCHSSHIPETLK
The experiment in a line: PBM E-score (8-mer binding enrichment) (E-score (-0.5 to 0.5)); higher = stronger / more preferred TF binding; most listed sequences are background and not binding sites. The conditions noted are these: protein concentration: 200 nM; construct: GST-full length. In a few lines: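 GST-tagged yeast TFs (full-length or DNA-binding domain) were made by PURExpress in vitro transcription/translation and applied at about 100-200 nM to universal all-10-mer Agilent arrays. The arrays were made double-stranded by primer extension, on fresh or once-stripped slides. Bound protein was detected with fluorescent anti-GST, and scans were normalised with masliner. Each ungapped eight-base word, pooled with its reverse complement, received an E-score (modified Wilcoxon-Mann-Whitney statistic) from the Universal PBM Analysis Suite.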
Consider CCGATGAG, for which the “PBM E-score” value is -0.114. The figure for CGCTCGCC is -0.0254; for CTCCGCGA it is 0.0183; for AGTCTCCA it is -0.063. The figure for TAATGGCA is 0.0823; for CTCTTGCA it is -0.158. The result for ACCTTGAC reads -0.0322. In the case of ACATCCTC, the “PBM E-score” value came to 0.0488.

As for ATCTCACC, the “PBM E-score” value was 0.145.

In the case of GGGTAGAC, the “PBM E-score” value was -0.151. The result for CGGCCAAG reads 0.00784.

CTAGTCAA: the “PBM E-score” value was -0.0557. The figure for ACCATGAT is -0.066. The result for TTGGCAAA reads 0.182. Regarding CCCTTGTC, the “PBM E-score” value was found to be 0.204. Consider ATAGTGCC, for which the “PBM E-score” value was found to be 0.0111.

Regarding GGAGATAA, the “PBM E-score” value is 0.158. The result for ACCTTACA reads -0.0523; that for CCGCACGC, -0.199; that for TAAGGCTA, -0.0383.

Turning to AAGAGATT, the “PBM E-score” value stood at 0.161.

Take CCTTTAAA: the “PBM E-score” value was -0.0699.

ACGTAAAA: the “PBM E-score” value stood at 0.0674.

Turning to GCGACGAA, the “PBM E-score” value was 0.0334.

In the case of AAGCAATG, the “PBM E-score” value stood at 0.0763.

Consider GGTTACTA, for which the “PBM E-score” value is -0.00381. The figure for AACACATC is -0.0538. The figure for AGAGCGCT is -0.219; for ATCCGACG it is 0.0674.

For AACTGACG, the “PBM E-score” value was -0.153. The figure for CCGTTCGC is -0.0924; for ACACCCTA it is -0.0566; for AAGCAACC it is -0.0237. The figure for CCGCAGCC is -0.199; for AGTTGAAG it is 0.0577. The figure for CACATAAC is 0.0195. Turning to ATCGGAAT, the “PBM E-score” value came out at 0.243. Turning to GCCTGTCA, the “PBM E-score” value is 0.0454. The figure for CCTCTGGA is -0.182; for ACATAAGG it is 0.201.

Regarding GGACGGTA, the “PBM E-score” value amounted to 0.0269.

As to AGGACGAT, the “PBM E-score” value is -0.0393. As for CGCGCATA, the “PBM E-score” value was -0.128. The result for AGGAACCG reads -0.0657. Consider CACGCGAC, for which the “PBM E-score” value was -0.0267. The figure for AGATACAG is 0.00761; for ACTGGCAG it is 0.0189. As to GATCTCGA, the “PBM E-score” value amounted to 0.0669. The result for CGACCTTC reads 0.0241; that for AGGCCTTC, 0.0459. The result for ACCTGAGT reads -0.0322. For the sequence GTCGCATA, the “PBM E-score” value came to 0.145. As for GACATGCA, the “PBM E-score” value stood at 0.276. The result for ATGGGTCG reads -0.262; that for CGACAGCA, -0.0706; that for GCATGTGA, -0.0233. The result for CTTCCAGA reads -0.0473; that for CGGCGTAA, 0.0867; that for CTCATACA, 0.0476. The figure for AATTCCAA is 0.0187; for ATCGGCCC it is 0.0202; for AAACAGAA it is 0.0771. Regarding CCTCACTA, the “PBM E-score” value was -0.111. Regarding TATTAGGA, the “PBM E-score” value was 0.287. The figure for CCTTTTGC is -0.0414. The result for ACTTTAAG reads 0.193; that for GCATCCGC, -0.0357; that for ACGCCTGC, -0.142. The result for GCTCCTAA reads -0.277. Take AGGATCCC: the “PBM E-score” value was -0.104. The result for GGTCAAAC reads 0.114; that for CCCTCGCA, -0.186. The figure for GCTCAGAA is -0.143; for GTCGGAAC it is 0.0293.

For GCAACTGA, the “PBM E-score” value was -0.0228. The figure for GGGATAAA is 0.149; for ACACGCAG it is -0.117; for AGCGCACG it is -0.0829. The figure for ACAGTAGG is -0.107; for AGACTATC it is 0.0636; for ATTCAGTG it is -0.0153. TAGGGAGA: the “PBM E-score” value is -0.215. As for AGGCGTGC, the “PBM E-score” value was -0.133.

CAGCCGAC: the “PBM E-score” value was -0.0347. The figure for ATTAGTTA is 0.189.

Turning to CACGTCCA, the “PBM E-score” value came out at 0.0832.

The values are drawn from the supplement of paper PMC3334620.
